In the antibiotic and cytotoxicity screens of Wong et al. (2023):
This is one part of the list.

Legend:
[1] = tested on: HSkMC (human skeletal muscle cells); assay: cytotoxicity call (relative viability < 0.9); conditions: 10 µM
[2] = tested on: HepG2; assay: cytotoxicity call (relative viability < 0.9); conditions: 10 µM
[3] = tested on: S. aureus RN4220; assay: growth inhibition call (relative growth <= 0.2); conditions: 50 µM

C[C@@H]1CN([C@@H](C)CO)C(=O)c2cc(NC(=O)Nc3ccc4c(c3)OCO4)ccc2O[C@@H](C)CCCCO[C@@H]1CN(C)Cc1ccc(C(F)(F)F)cc1
cytotoxicity call [1]: inactive
cytotoxicity call [2]: inactive
growth inhibition call [3]: inactive

C[C@H](CO)N1C[C@H](C)[C@H](CN(C)C(=O)Nc2ccc(C(F)(F)F)cc2)Oc2ncc(C3=CCCC3)cc2C1=O
cytotoxicity call [1]: inactive
cytotoxicity call [2]: inactive
growth inhibition call [3]: inactive

Cc1noc(C)c1NC(=O)Nc1cccc2c1O[C@H](CN(C)C(=O)Nc1ccc(C(F)(F)F)cc1)[C@H](C)CN([C@H](C)CO)C2=O
cytotoxicity call [1]: inactive
cytotoxicity call [2]: inactive
growth inhibition call [3]: inactive

O=C(C[C@H]1CC[C@H]2[C@@H](COC[C@@H](O)CN2S(=O)(=O)c2ccc(Cl)cc2)O1)N1CCc2ccccc2C1
cytotoxicity call [1]: inactive
cytotoxicity call [2]: inactive
growth inhibition call [3]: inactive

COc1ccc(NC(=O)Nc2ccc3c(c2)C(=O)N([C@@H](C)CO)C[C@H](C)[C@@H](CN(C)C(=O)Nc2ccc(C(F)(F)F)cc2)O3)cc1
cytotoxicity call [1]: inactive
cytotoxicity call [2]: inactive
growth inhibition call [3]: inactive

C[C@H]1CN([C@@H](C)CO)C(=O)c2cc(C#Cc3ccncc3)cnc2O[C@H]1CN(C)C(=O)c1ccccc1F
cytotoxicity call [1]: inactive
cytotoxicity call [2]: inactive
growth inhibition call [3]: inactive

C[C@H](CO)N1C[C@H](C)[C@H](CN(C)C(=O)c2cccc(F)c2)Oc2cc(-c3cccnc3)ccc2S1(=O)=O
cytotoxicity call [1]: inactive
cytotoxicity call [2]: inactive
growth inhibition call [3]: inactive

O=C(C[C@H]1C[C@@H]2c3cc(NC(=O)c4ccc5c(c4)OCO5)ccc3O[C@@H]2[C@H](CO)O1)NCCN1CCCCC1
cytotoxicity call [1]: inactive
cytotoxicity call [2]: inactive
growth inhibition call [3]: inactive

CCOc1cc(CC(=O)NC(CC(C)C)c2ccccc2N2CCCCC2)ccc1C(=O)O (configuration not stated)
cytotoxicity call [1]: inactive
cytotoxicity call [2]: inactive
growth inhibition call [3]: inactive

Cc1nc(N(C)C)ncc1C(=O)O
cytotoxicity call [1]: inactive
cytotoxicity call [2]: inactive
growth inhibition call [3]: inactive

CCCCCN1CC=C[C@]23O[C@@H]4/C=C/CCC(=O)N(C)[C@H](C)[C@@H](c5ccccc5)OC(=O)[C@@H]4[C@H]2C(=O)N(c2ccccc2Cl)[C@@H]3C1=O
cytotoxicity call [1]: inactive
cytotoxicity call [2]: inactive
growth inhibition call [3]: inactive

COC(=O)C(CC#Cc1ccc2c(c1)[C@]1(C(=O)N2)[C@H](c2ccc(O)cc2)N2[C@H](c3ccccc3)[C@H](c3ccccc3)OC(=O)[C@H]2[C@@H]1C(=O)N1CCc2cc(OC)c(OC)cc2C1)C(=O)OC
cytotoxicity call [1]: inactive
cytotoxicity call [2]: inactive
growth inhibition call [3]: inactive

COCC(=O)Nc1ccc2c(c1)C(=O)N(C)[C@@H]1CC[C@@H](CC(=O)NCc3ccc(OC)cc3)O[C@H]1CO2
cytotoxicity call [1]: inactive
cytotoxicity call [2]: inactive
growth inhibition call [3]: inactive

C[C@@H]1CN([C@H](C)CO)C(=O)Cc2cc(NC(=O)CCC(F)(F)F)ccc2O[C@@H]1CN(C)S(=O)(=O)c1cccs1
cytotoxicity call [1]: inactive
cytotoxicity call [2]: inactive
growth inhibition call [3]: inactive

C[C@H]1CN([C@@H](C)CO)C(=O)c2cc(NC(=O)Nc3cccc4ccccc34)ccc2O[C@H]1CN(C)C(=O)Nc1ccccc1
cytotoxicity call [1]: inactive
cytotoxicity call [2]: active
growth inhibition call [3]: inactive

C[C@H](CO)N1C[C@H](C)[C@H](CN(C)S(=O)(=O)c2ccccc2)Oc2ncc(C#CCN(C)C)cc2C1=O
cytotoxicity call [1]: inactive
cytotoxicity call [2]: inactive
growth inhibition call [3]: inactive

CCCCC(=O)N1c2ccccc2[C@H](Nc2ccccc2)C[C@@H]1C
cytotoxicity call [1]: inactive
cytotoxicity call [2]: inactive
growth inhibition call [3]: inactive

CS(=O)(=O)CCOC(=O)C1=CC(c2ccc(CO)cc2)=C[C@@H](C2CC2)N(Cc2cc3c(cc2Br)OCO3)C=C1C(=O)OCCS(C)(=O)=O
cytotoxicity call [1]: inactive
cytotoxicity call [2]: inactive
growth inhibition call [3]: inactive

Cc1noc(C)c1S(=O)(=O)N(C)C[C@H]1OCCCC[C@H](C)Oc2ccc(NC(=O)Nc3cccc4ccccc34)cc2C(=O)N([C@H](C)CO)C[C@@H]1C
cytotoxicity call [1]: inactive
cytotoxicity call [2]: inactive
growth inhibition call [3]: inactive

C[C@H](CO)N1C[C@H](C)[C@@H](CN(C)S(=O)(=O)c2ccc(Cl)cc2)OCc2ccccc2-c2c(n(C)c3ccccc23)C1=O
cytotoxicity call [1]: inactive
cytotoxicity call [2]: inactive
growth inhibition call [3]: inactive

COc1ccc(CN(C)C[C@H]2OCCCC[C@H](C)Oc3ccc(NC(=O)Nc4ccc(F)cc4)cc3C(=O)N([C@@H](C)CO)C[C@H]2C)cc1
cytotoxicity call [1]: inactive
cytotoxicity call [2]: active
growth inhibition call [3]: inactive

CCCNC(=O)C[C@@H]1CC[C@@H]2[C@H](COc3ccc(NC(=O)c4ccc5c(c4)OCO5)cc3C(=O)N2C)O1
cytotoxicity call [1]: inactive
cytotoxicity call [2]: inactive
growth inhibition call [3]: inactive

C[C@@H]1CN([C@@H](C)CO)C(=O)c2cc(NC(=O)Nc3cccc4ccccc34)ccc2O[C@H]1CN(C)Cc1ccc(C(F)(F)F)cc1
cytotoxicity call [1]: inactive
cytotoxicity call [2]: active
growth inhibition call [3]: inactive

CCCNC(=O)N(C)C[C@H]1Oc2ncc(-c3ccc(C(=O)N(C)C)cc3)cc2C(=O)N([C@H](C)CO)C[C@@H]1C
cytotoxicity call [1]: inactive
cytotoxicity call [2]: inactive
growth inhibition call [3]: inactive

Cc1noc(C)c1S(=O)(=O)N(C)C[C@H]1Oc2ccc(NS(C)(=O)=O)cc2CC(=O)N([C@@H](C)CO)C[C@@H]1C
cytotoxicity call [1]: inactive
cytotoxicity call [2]: inactive
growth inhibition call [3]: inactive

C[C@H](CO)N1C[C@H](C)[C@@H](CN(C)Cc2ccc(Cl)c(Cl)c2)Oc2ccc(NC(=O)Nc3ccc4c(c3)OCO4)cc2CC1=O
cytotoxicity call [1]: active
cytotoxicity call [2]: inactive
growth inhibition call [3]: inactive

C[C@@H]1CN([C@H](C)CO)C(=O)c2cccc(NC(=O)Nc3ccc(F)cc3)c2O[C@@H]1CN(C)Cc1ccc(Cl)c(Cl)c1
cytotoxicity call [1]: inactive
cytotoxicity call [2]: inactive
growth inhibition call [3]: inactive

COc1ccc(S(=O)(=O)N(C)C[C@H]2OCCCC[C@@H](C)Oc3ccc(NC(=O)Nc4c(C)noc4C)cc3C(=O)N([C@H](C)CO)C[C@@H]2C)cc1
cytotoxicity call [1]: inactive
cytotoxicity call [2]: inactive
growth inhibition call [3]: inactive

Cc1cccc(S(=O)(=O)N2C[C@H](O)COC[C@H]3O[C@H](CC(=O)NCc4ccncn4)CC[C@@H]32)c1
cytotoxicity call [1]: inactive
cytotoxicity call [2]: inactive
growth inhibition call [3]: inactive

CC(C)NC(=O)Nc1ccc2c(c1)CC(=O)N([C@H](C)CO)C[C@H](C)[C@H](CN(C)Cc1ccc3c(c1)OCO3)O2
cytotoxicity call [1]: inactive
cytotoxicity call [2]: inactive
growth inhibition call [3]: inactive

CN(C)CCCCNC(=O)[C@H]1C[C@H]2C(=O)N[C@@H](CCCCN)C(=O)N2[C@H]1c1cccc(OCCO)c1
cytotoxicity call [1]: inactive
cytotoxicity call [2]: inactive
growth inhibition call [3]: inactive

C=C1CCC(O)CC1=CC=C1CCCC2(C)C1CCC2C(C)CCCC(C)C (configuration not stated)
cytotoxicity call [1]: inactive
cytotoxicity call [2]: inactive
growth inhibition call [3]: inactive

COc1ccc(NC(=O)N(C)C[C@H]2Oc3ccc(NC(=O)CCN4CCOCC4)cc3C(=O)N([C@H](C)CO)C[C@H]2C)cc1
cytotoxicity call [1]: inactive
cytotoxicity call [2]: inactive
growth inhibition call [3]: inactive

C[C@@H]1CN([C@@H](C)CO)C(=O)c2cc(NC(=O)Cc3ccccc3)ccc2O[C@@H]1CN(C)Cc1ccc(Cl)c(Cl)c1
cytotoxicity call [1]: inactive
cytotoxicity call [2]: inactive
growth inhibition call [3]: inactive

Cn1c(=O)c2[nH]cnc2n(C)c1=O
cytotoxicity call [1]: inactive
cytotoxicity call [2]: inactive
growth inhibition call [3]: inactive

CN(C)C(=O)N[C@H]1CN(S(C)(=O)=O)[C@H]2CCCO[C@@H]12
cytotoxicity call [1]: inactive
cytotoxicity call [2]: inactive
growth inhibition call [3]: inactive

CC(C)N(C)C(=O)c1cccc(NC(=O)c2ccncc2)c1OCCCN(C)Cc1ccc(Cl)cc1
cytotoxicity call [1]: inactive
cytotoxicity call [2]: inactive
growth inhibition call [3]: inactive

NCCCCCc1cnc[nH]1
cytotoxicity call [1]: inactive
cytotoxicity call [2]: inactive
growth inhibition call [3]: inactive

CC(C)(C)[S@@](=O)N1Cc2cc3nc(-c4cccc(Br)c4)c2[C@H]1CCOC(=O)c1cc2c(c(-c4cccc(Br)c4)n1)[C@@H](CCOC3=O)N([S@](=O)C(C)(C)C)C2
cytotoxicity call [1]: inactive
cytotoxicity call [2]: inactive
growth inhibition call [3]: inactive

CCC(=O)N(C)C[C@@H]1Oc2ncc(C#C[C@@H](C)O)cc2C(=O)N([C@@H](C)CO)C[C@@H]1C
cytotoxicity call [1]: inactive
cytotoxicity call [2]: inactive
growth inhibition call [3]: inactive

Cc1ccc(S(=O)(=O)N(C)C[C@@H]2Oc3ccc(NC(=O)NC(C)C)cc3C(=O)N([C@H](C)CO)C[C@@H]2C)cc1
cytotoxicity call [1]: inactive
cytotoxicity call [2]: inactive
growth inhibition call [3]: inactive

C[N+](C)(C)CCCCNC(=O)[C@@H]1C[C@@H]2C(=O)N[C@@H](Cc3ccccc3)C(=O)N2[C@@H]1c1cccc(OCCO)c1
cytotoxicity call [1]: inactive
cytotoxicity call [2]: inactive
growth inhibition call [3]: inactive

NCc1ccc(C(=O)N2CCCC2)cc1
cytotoxicity call [1]: inactive
cytotoxicity call [2]: inactive
growth inhibition call [3]: inactive

CCOC(=O)CCCCCC(=O)Nc1ccc2c(c1)C(=O)N([C@H](C)CO)C[C@@H](C)[C@@H](CN(C)S(=O)(=O)c1ccc(Cl)cc1)OCCCC[C@H](C)O2
cytotoxicity call [1]: inactive
cytotoxicity call [2]: inactive
growth inhibition call [3]: inactive

CC(=O)O[C@@H]1[C@@H]2C[C@@H]([C@H]1OC(C)=O)[C@@H]1C(=O)N(C)C(=O)[C@@H]21
cytotoxicity call [1]: inactive
cytotoxicity call [2]: active
growth inhibition call [3]: inactive

O=C(C[C@@H]1C[C@@H]2c3cc(NC(=O)Nc4ccc(C(F)(F)F)cc4)ccc3O[C@@H]2[C@H](CO)O1)NCc1ccc(Cl)cc1
cytotoxicity call [1]: inactive
cytotoxicity call [2]: inactive
growth inhibition call [3]: inactive

COc1ccc(S(=O)(=O)Nc2cccc3c2O[C@H](CN(C)S(=O)(=O)c2ccccc2)[C@H](C)CN([C@H](C)CO)C3=O)cc1
cytotoxicity call [1]: inactive
cytotoxicity call [2]: inactive
growth inhibition call [3]: inactive

CN(C)c1ccc(O)c2c1C[C@H]1C[C@H]3[C@H](N(C)C)C(=O)[C@@H](C(N)=O)C(=O)[C@@]3(O)C(=O)[C@H]1C2=O
cytotoxicity call [1]: inactive
cytotoxicity call [2]: inactive
growth inhibition call [3]: active

Cc1cc(C(=O)Nc2cccc3c2O[C@H](CN(C)C(=O)Nc2ccccc2)[C@@H](C)CN([C@@H](C)CO)C3=O)n(C)n1
cytotoxicity call [1]: inactive
cytotoxicity call [2]: inactive
growth inhibition call [3]: inactive

C[C@H]1CN([C@@H](C)CO)C(=O)c2cc(NS(=O)(=O)c3cccs3)ccc2O[C@H]1CN(C)S(=O)(=O)c1cn(C)cn1
cytotoxicity call [1]: inactive
cytotoxicity call [2]: inactive
growth inhibition call [3]: inactive

COc1ccc(S(=O)(=O)N(C)C[C@H]2OCCCC[C@H](C)Oc3ccc(NS(C)(=O)=O)cc3C(=O)N([C@@H](C)CO)C[C@H]2C)cc1
cytotoxicity call [1]: inactive
cytotoxicity call [2]: inactive
growth inhibition call [3]: inactive

C[C@H](CO)N1C[C@H](C)[C@@H](CN(C)C(=O)Nc2cccc3ccccc23)Oc2ccc(NC(=O)Cc3ccccc3)cc2CC1=O
cytotoxicity call [1]: active
cytotoxicity call [2]: inactive
growth inhibition call [3]: inactive

CCS(=O)(=O)N1CCOC[C@]2(CN(c3cnn(C)c3)C(=O)CO2)C1
cytotoxicity call [1]: inactive
cytotoxicity call [2]: inactive
growth inhibition call [3]: inactive

C[C@@H]1CCCCO[C@@H](CN(C)C(=O)C2CCCCC2)[C@@H](C)CN([C@@H](C)CO)C(=O)c2cc(NC(=O)Nc3ccccc3)ccc2O1
cytotoxicity call [1]: inactive
cytotoxicity call [2]: active
growth inhibition call [3]: inactive
